According to PubChem BioAssay AID1468 (National Center for Advancing Translational Sciences (NCATS), 2008):
Several values for one entry are separate records, joined by “and”; a condition that tells them apart may be missing. Equal values may be shown once. About 1,100 (0.39%) of roughly 280,000 compounds were called active. The inconclusive results got no clear call from the source; some entries with a clear call stand among them for comparison. Calls come from the whole dose curve; as a rule, active = well fitted inhibition curve with a large enough effect; inconclusive = small, poorly fitted or top-dose-only effect, or effect the other way; inactive = flat fitted curve, though single readings scatter. A potency beside an inconclusive call is a rough fit, not a confirmed value.

molecular target: Microtubule-associated protein tau (Homo sapiens) (UniProt P10636); assay: qHTS for Inhibitors of Tau Fibril Formation, Fluorescence Polarization; settings: K18 P301L tau heparin fibrillization, Alexa594 FP, 6 h; series mostly up to 57.7 µM; activity, negative = inhibition: at the top concentration; note: nearly all actives have a fitted effect of over 55% in size
Procedure, shortened: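 Human tau K18 […] P301L fragment, 15 uM unlabeled plus 0.24 uM Alexa 594-labeled tau (final), with compound and 20 uM heparin in 100 mM sodium acetate pH 7; 6 hr at 37 C, then Alexa 594 FP read.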
% is set by controls: 0 for no effect and ±100 for the full control effect; potency is the fitted concentration of half-maximal effect; tags give direction and shape of the fitted curve.

UniProt P10636, sequence (P10636 whole entry, looked up, the tested form may be a part): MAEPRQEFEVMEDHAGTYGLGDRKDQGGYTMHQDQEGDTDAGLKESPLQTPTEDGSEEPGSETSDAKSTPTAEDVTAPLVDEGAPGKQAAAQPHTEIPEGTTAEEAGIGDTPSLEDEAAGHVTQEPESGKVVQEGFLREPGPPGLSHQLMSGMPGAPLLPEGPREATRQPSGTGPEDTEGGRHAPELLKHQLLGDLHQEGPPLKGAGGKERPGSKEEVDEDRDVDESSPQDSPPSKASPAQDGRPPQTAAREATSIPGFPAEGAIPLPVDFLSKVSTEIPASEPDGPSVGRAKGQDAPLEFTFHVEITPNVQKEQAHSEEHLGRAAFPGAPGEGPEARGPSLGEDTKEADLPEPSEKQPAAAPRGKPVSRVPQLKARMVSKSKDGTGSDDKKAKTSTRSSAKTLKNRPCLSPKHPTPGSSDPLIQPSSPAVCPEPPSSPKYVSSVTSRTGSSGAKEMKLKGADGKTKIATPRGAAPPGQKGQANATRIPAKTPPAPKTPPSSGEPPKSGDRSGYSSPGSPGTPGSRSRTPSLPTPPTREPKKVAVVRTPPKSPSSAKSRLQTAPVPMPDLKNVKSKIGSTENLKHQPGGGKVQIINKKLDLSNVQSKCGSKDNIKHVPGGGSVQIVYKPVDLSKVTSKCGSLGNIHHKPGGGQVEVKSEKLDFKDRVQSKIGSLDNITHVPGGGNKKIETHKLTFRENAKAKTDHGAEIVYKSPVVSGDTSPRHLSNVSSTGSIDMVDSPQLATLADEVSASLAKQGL

Compound	Potency	activity, negative = inhibition
Cc1ccccc1Oc1cc(NC(=O)Cn2cnc([N+](=O)[O-])c2)cc([N+](=O)[O-])c1	inconclusive: 39.8 µM [inhibitor, single point]	–
Cc1cccc(Nc2nc(-c3ccccc3)c(C(=O)Nc3cccnc3)s2)c1	inconclusive: 8.91 µM [activator, partial curve]	–
CCOc1cc(NC(=S)NCC2CCCO2)c(OCC)cc1NC(=O)c1ccccc1F (stereo not drawn)	inconclusive: 2.24 µM [activator, partial curve]	–
CSc1ccc(CNCc2c(C(=O)O)c(C)n(Cc3ccc(F)cc3Cl)c2C)cc1	–	inactive: 8.69%
CSc1nsc(/C=C/Nc2ccc(Cl)cc2)c1C#N	–	inactive: -7.51%
CC(C)c1ccc(NC(=O)CSc2ncc3c(n2)-c2ccccc2N(C)S3(=O)=O)cc1	inconclusive: 39.8 µM [inhibitor, single point]	–
Cc1ccc(N2C(=O)C3C4C=CC(CNC(=S)Nc5ccc(Cl)cc5)(O4)C3C2=O)cc1 (stereo not drawn)	–	inactive: 1.81%
COc1cccc(NC(=O)COC(=O)c2c3c(nc4ccccc24)CCC(C)C3)c1 (stereo not drawn)	–	inactive: -3.98%
O=C(Nc1nc(-c2cc(Cl)sc2Cl)cs1)c1ccccc1	inconclusive: 28.2 µM [inhibitor, partial curve, poor fit]	–
Cc1cc(C(=O)OC(C(=O)Nc2ccc(C)c(Cl)c2)c2ccccc2)c(C)o1 (stereo not drawn)	inconclusive: 17.8 µM [inhibitor, partial curve]	–
CCCS(=O)(=O)Nc1c(OC)ccc2c1c(C(=O)OCC)c(C)n2C	inconclusive: 15.8 µM [activator, single point]	–
Cc1ccc(NC(=O)c2ccc(NC(=O)N3CCSc4ncccc43)cc2)cc1Cl	inconclusive: 39.8 µM [inhibitor, single point]	–
COC(=O)c1cccc(NC(=O)CSc2nnc(COc3ccccc3)n2C)c1	–	inactive: 5.03%
COc1ccc(COc2cc(-c3cccc(OC)c3)nc3ccc(NC(=O)c4cccnc4)cc23)cc1	inconclusive: 14.1 µM [inhibitor, partial curve] and inconclusive: 15.8 µM [inhibitor, partial curve]	–
CC1=CC(c2ccc(Cl)cc2)n2nc(N3C(=O)CCC3=O)nc2N1 (stereo not drawn)	inconclusive: 20 µM [inhibitor, single point]	–
O=C(NC1CCCc2ccccc21)C1CCN(S(=O)(=O)c2cccc3nonc23)CC1 (stereo not drawn)	–	inactive: -1.65%
O=[N+]([O-])c1cccc(/C([O-])=C(/C(=S)Nc2cccc3ccccc23)[n+]2ccccc2)c1	–	inactive: 1.1%
c1ccc(CNc2nc3ccccc3c3nc(-c4ccccc4)nn23)cc1	inconclusive: 31.6 µM [inhibitor, single point]	–
